Test results reported in PMC7529893, “Structural basis for substrate recognition and chemical inhibition of oncogenic MAGE ubiquitin ligases” (Nature Communications, 2020).
Changes are numbered by the printed parent chain. No constants are given. Whether binding was seen depends on the method and setting. In cells and extracts the contact can be indirect. Some results given as binding are weak or reduced against the parent protein; the word gives no strength. For some of these results: Tags and fused reporters may be left off the sequences shown.

By UniProt entry, the sequences of proteins in these tests, tags left out. Where a name states a change or a piece, a line headed by the entry shows the natural chain unless it says otherwise. Chains listed by the source or under a name are the forms on record and can include a tag or linker.
UniProt P43357: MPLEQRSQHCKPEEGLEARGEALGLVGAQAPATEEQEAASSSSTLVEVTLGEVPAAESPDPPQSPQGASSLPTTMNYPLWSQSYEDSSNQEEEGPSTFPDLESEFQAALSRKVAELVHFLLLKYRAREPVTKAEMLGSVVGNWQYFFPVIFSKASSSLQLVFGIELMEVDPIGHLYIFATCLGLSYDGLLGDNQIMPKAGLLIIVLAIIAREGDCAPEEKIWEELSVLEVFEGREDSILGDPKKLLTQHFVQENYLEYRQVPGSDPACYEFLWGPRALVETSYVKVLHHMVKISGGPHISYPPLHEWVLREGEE
UniProt P58546: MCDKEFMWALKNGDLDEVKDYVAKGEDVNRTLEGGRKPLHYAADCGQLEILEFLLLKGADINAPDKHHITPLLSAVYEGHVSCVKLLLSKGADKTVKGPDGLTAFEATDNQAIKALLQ
UniProt O94913: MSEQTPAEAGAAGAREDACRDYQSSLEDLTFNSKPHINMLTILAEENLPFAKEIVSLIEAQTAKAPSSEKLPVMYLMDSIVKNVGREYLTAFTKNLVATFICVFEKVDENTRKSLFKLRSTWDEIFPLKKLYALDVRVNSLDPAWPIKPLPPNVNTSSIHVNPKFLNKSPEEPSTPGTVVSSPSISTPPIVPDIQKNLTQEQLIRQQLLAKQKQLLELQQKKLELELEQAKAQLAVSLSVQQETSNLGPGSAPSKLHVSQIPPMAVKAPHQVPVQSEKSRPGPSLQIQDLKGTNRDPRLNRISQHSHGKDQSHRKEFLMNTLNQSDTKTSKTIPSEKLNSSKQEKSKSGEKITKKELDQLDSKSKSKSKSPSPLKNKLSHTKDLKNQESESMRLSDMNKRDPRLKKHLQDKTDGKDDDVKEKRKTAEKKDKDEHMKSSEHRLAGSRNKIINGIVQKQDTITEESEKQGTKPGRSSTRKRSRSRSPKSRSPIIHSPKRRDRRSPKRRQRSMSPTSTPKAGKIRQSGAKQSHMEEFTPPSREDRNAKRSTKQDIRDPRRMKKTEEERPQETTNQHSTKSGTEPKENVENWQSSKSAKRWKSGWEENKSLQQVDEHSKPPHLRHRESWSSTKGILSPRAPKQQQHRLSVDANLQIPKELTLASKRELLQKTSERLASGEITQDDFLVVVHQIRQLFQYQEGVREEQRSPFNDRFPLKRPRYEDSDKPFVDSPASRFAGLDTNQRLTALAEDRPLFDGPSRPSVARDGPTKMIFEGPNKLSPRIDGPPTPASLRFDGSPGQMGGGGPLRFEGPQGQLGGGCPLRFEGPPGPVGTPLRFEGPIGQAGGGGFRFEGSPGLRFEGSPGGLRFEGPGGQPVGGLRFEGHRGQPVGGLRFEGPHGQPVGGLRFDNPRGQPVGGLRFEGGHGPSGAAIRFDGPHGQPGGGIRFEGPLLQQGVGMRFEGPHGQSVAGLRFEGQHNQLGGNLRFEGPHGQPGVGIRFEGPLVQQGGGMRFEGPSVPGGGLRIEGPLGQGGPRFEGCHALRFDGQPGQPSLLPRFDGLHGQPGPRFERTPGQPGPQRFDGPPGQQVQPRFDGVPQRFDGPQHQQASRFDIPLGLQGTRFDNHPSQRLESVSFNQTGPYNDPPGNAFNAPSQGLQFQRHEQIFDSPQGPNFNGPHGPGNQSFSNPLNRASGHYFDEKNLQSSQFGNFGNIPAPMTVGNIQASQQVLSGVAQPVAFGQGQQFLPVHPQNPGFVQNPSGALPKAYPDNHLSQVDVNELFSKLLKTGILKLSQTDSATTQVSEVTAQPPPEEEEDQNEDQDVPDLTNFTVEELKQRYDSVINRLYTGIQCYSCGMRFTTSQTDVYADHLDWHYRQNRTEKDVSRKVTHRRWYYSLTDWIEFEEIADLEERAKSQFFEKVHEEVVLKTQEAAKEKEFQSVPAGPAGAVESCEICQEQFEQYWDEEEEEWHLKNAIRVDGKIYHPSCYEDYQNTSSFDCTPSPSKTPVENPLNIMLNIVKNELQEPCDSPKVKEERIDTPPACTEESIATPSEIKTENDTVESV
PCF11 653-702 deletion construct (Myc-tagged, transfected) (O94913, form named): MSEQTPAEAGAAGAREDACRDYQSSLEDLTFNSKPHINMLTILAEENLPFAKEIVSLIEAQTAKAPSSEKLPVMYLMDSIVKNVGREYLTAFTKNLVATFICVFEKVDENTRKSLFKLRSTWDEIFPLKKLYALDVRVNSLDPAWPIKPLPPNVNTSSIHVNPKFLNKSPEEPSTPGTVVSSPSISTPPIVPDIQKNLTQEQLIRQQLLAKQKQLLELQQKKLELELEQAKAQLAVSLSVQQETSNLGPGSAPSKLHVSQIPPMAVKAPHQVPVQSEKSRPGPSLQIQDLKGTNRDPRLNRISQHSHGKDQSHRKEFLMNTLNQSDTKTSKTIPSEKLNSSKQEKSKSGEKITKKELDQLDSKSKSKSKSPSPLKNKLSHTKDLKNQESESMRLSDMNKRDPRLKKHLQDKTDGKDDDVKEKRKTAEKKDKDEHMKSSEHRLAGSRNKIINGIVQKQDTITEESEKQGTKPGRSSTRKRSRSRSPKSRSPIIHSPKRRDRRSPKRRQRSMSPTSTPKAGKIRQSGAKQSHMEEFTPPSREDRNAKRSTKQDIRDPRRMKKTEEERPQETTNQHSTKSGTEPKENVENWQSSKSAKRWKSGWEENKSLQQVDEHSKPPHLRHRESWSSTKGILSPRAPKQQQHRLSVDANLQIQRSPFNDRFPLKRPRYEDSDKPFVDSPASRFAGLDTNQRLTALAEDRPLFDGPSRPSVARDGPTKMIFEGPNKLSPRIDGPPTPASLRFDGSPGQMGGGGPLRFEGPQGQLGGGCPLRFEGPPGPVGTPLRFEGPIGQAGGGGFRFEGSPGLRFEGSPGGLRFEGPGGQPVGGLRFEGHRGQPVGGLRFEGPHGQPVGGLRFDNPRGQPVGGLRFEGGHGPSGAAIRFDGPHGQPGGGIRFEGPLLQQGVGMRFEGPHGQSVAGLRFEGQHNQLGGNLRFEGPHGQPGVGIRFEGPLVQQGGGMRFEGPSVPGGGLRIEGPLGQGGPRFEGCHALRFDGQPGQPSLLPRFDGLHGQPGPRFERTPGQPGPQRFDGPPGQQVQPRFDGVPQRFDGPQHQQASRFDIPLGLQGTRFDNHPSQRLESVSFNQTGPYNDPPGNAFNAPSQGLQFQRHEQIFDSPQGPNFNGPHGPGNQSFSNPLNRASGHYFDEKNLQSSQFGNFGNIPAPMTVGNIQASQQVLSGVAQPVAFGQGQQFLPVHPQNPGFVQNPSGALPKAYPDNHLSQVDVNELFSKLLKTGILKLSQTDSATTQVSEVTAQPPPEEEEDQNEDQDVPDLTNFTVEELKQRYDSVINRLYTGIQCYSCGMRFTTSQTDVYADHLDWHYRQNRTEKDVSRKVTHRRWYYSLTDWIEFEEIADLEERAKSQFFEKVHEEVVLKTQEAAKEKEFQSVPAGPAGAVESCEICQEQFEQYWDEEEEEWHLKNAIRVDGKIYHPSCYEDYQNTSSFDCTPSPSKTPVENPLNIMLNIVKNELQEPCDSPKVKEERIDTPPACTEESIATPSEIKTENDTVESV
UniProt Q13263: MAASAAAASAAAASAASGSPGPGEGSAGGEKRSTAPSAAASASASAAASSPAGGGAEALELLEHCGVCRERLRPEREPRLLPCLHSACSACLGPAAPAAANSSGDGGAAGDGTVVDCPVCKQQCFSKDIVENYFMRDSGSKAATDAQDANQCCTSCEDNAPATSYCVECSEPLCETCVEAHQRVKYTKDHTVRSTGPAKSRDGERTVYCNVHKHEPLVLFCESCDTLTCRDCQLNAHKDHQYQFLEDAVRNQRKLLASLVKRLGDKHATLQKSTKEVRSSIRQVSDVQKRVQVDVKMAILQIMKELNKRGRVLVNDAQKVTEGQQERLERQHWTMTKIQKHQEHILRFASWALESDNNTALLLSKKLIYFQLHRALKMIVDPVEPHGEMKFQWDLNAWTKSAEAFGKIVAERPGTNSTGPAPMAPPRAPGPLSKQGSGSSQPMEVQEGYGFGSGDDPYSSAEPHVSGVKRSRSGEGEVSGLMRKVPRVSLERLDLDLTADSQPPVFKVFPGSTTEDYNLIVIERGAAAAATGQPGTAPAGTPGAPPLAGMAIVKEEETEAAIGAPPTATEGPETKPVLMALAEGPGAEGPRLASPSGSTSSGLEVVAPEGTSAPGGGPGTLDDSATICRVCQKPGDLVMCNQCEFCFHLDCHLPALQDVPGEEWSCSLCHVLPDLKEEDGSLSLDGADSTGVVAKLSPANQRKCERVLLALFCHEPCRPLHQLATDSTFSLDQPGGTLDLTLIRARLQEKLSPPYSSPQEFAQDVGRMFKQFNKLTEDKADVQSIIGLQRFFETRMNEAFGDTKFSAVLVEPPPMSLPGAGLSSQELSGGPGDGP

How the values were obtained:
[1] = biological target: T1, FLAG-MAGE-A11 Y414A (human) (UniProt P43364); assay: co-IP; HEK293FT cells stably expressing FLAG-MAGE-A11 wild-type or mutants; pull-down with anti-FLAG, immunoblot anti-HUWE1 and anti-PCF11; in Fig. 5h lysates were incubated with 100 µM SJ521054 or SJ1008066 for 24 h
T1 sequence: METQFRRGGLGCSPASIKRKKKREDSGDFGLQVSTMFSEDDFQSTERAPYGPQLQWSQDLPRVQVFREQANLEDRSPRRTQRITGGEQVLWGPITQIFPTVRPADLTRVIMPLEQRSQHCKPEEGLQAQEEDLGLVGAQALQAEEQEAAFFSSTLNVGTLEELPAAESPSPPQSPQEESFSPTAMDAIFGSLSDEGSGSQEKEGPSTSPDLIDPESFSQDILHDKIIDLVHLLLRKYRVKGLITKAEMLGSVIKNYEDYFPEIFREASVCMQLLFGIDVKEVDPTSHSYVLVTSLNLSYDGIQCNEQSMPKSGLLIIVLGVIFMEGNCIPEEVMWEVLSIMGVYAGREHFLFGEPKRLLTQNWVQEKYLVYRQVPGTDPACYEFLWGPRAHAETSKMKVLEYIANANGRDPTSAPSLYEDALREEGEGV

[2] = biological target: T2, FLAG-MAGE-A11 I317R (human) (UniProt P43364); assay: as above
T2 sequence: T1 sequence with I317R, A414Y

[3] = biological target: T3, FLAG-MAGE-A11 wild-type (human) (UniProt P43364); assay: as above
T3 sequence: T1 sequence with A414Y

[4] = biological target: T4, FLAG-MAGE-A11 M341R (human) (UniProt P43364); assay: as above
T4 sequence: T1 sequence with M341R, A414Y

[5] = biological target: T5, FLAG-MAGE-A11 F275A (human) (UniProt P43364); assay: as above
T5 sequence: T1 sequence with F275A, A414Y

[6] = biological target: T6, GST-MAGE-A11 MHD (human MAGE-A11 MHD amino acid 218-429) (human) (UniProt P43364); assay: pull-down; purified GST-tagged protein on glutathione Sepharose beads, in vitro translated Myc-tagged protein (rabbit reticulocyte lysate) added; 25 mM Tris pH 8.0, 2.7 mM KCl, 137 mM NaCl, 0.05% Tween-20, 10 mM 2-mercaptoethanol, 5% milk powder; immunoblot anti-Myc; only the target purified
T6 sequence: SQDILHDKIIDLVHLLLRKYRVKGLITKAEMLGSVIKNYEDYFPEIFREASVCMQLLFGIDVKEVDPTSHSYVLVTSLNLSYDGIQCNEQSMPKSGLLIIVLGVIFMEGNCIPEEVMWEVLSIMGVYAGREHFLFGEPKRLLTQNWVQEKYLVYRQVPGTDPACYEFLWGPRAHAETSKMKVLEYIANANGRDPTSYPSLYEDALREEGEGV

[7] = biological target: T3, FLAG-MAGE-A11 wild-type (human); assay: co-IP; HEK293FT cells stably expressing FLAG-MAGE-A11, transfected with PCF11 wild-type or 653-702 deletion construct for 48 h; IP with anti-FLAG, immunoblot anti-Myc
Myc-MAGE-A3 L228R = Myc-MAGE-A3 L228R (UniProt P43357); assay: co-IP; HeLa cells transfected with the indicated constructs for 48 h; IP with anti-Myc, immunoblot; in Fig. 5i lysates were incubated with 100 µM SJ521054 or SJ1008066 for 24 h
Myc-MAGE-A3 F162A = Myc-MAGE-A3 F162A (UniProt P43357); assay: as above
Myc-MAGE-A3 wild-type = Myc-MAGE-A3 wild-type (UniProt P43357); assay: as above
Myc-MAGE-A3 Y301A = Myc-MAGE-A3 Y301A (UniProt P43357); assay: as above
Myc-MAGE-A3 I204R = Myc-MAGE-A3 I204R (UniProt P43357); assay: as above

Row | Substance | binding [2] | binding [3] | binding [4] | binding [7] | other results
1 | HUWE1 (from UniProt Q7Z6Z7 1-4374) (enzyme) | binds | binds | binds |  | binding [1]: binds; binding [5]: binds
2 | MTPN (Myc-tagged, in vitro translated) (from UniProt P58546 1-118) |  |  |  |  | binding [6]: no binding
3 | PCF11 653-702 deletion construct (Myc-tagged, transfected) (from UniProt O94913 1-1555) |  |  |  | no binding | 
4 | PCF11 wild-type (Myc-tagged, transfected) (from UniProt O94913 1-1555) |  |  |  | binds | 
5 | TRIM28 (from UniProt Q13263 1-835) (enzyme) |  |  |  |  | binding (Myc-MAGE-A3 L228R): binds; binding (Myc-MAGE-A3 F162A): binds; binding (Myc-MAGE-A3 wild-type): binds; binding (Myc-MAGE-A3 Y301A): binds; binding (Myc-MAGE-A3 I204R): binds
6 | endogenous PCF11 (from UniProt O94913 1-1555) | no binding | binds | no binding |  | 
